Assay results from US20160040196A1, “ENZYMATIC CONVERSION OF BOTH ENANTIOMERS OF 1,2-PROPANEDIOL TO PROPIONALDEHYDE” (University of Georgia Research Foundation, Inc., priority 2014, published 2016).

Each compound was assayed against C. butyricum glycerol dehydratase (CbGD) (Clostridium butyricum, UniProt Q8GEZ8).
With `C[C@@H](O)CO` [R-1,2-propanediol, (R)-1,2-propanediol] the activity as substrate was “No activity was observed”. For `C[C@H](O)CO` [S-1,2-propanediol, (S)-1,2-propanediol], the activity as substrate was “can utilize”. For `OCC(O)CO` [glycerol, propane-1,2,3-triol], the activity as substrate was “can utilize”.
